Reference: PubChem BioAssay (Tox21)
Inconclusive means that the source gave no clear call. Such entries were picked first, then a sample of the others. For part of these data: Potencies of inconclusive entries are left out as doubtful fits. The source made the active and inactive calls. Unless noted, the call rests on the fitted dose curve; in most records, active means well fitted curve in the direction sought with a large enough effect in the repeat runs; inconclusive means weak or mixed curves; inactive means no such curve, though single readings can be large; an effect the other way counts as inactive or inconclusive.

Target: Glucocorticoid receptor (Homo sapiens) (UniProt P04150)
Experiment: qHTS assay to identify small molecule agonists of the glucocorticoid receptor (GR) signaling pathway (AID 720691; active means well fitted activation curve with a large enough effect in the signal ratio in the repeat runs, not every such curve was filed as active; inconclusive means weak or mixed curves, or effect the other way; inactive means no such curve, though single readings can be large or run the other way; the % refers to the signal ratio; further: potency means the concentration at half of the fitted maximal effect; on activation: on the % scale 0 is the no-effect control and ±100 the full control effect)
Details: GR-bla HeLa, beta-lactamase reporter ratio, 18 h; activation: at 62.4 µM (top of the series) unless noted
Method in brief: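 Measures GR pathway activation through a GRE-beta-lactamase reporter stably integrated in HeLa cells, with 18 h compound treatment at 37 C and fluorescence detection using a FRET substrate.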
Tags describe the fitted curve by direction and shape or compound fluorescence and quenching.

Chain of UniProt P04150 (P04150 whole entry, looked up): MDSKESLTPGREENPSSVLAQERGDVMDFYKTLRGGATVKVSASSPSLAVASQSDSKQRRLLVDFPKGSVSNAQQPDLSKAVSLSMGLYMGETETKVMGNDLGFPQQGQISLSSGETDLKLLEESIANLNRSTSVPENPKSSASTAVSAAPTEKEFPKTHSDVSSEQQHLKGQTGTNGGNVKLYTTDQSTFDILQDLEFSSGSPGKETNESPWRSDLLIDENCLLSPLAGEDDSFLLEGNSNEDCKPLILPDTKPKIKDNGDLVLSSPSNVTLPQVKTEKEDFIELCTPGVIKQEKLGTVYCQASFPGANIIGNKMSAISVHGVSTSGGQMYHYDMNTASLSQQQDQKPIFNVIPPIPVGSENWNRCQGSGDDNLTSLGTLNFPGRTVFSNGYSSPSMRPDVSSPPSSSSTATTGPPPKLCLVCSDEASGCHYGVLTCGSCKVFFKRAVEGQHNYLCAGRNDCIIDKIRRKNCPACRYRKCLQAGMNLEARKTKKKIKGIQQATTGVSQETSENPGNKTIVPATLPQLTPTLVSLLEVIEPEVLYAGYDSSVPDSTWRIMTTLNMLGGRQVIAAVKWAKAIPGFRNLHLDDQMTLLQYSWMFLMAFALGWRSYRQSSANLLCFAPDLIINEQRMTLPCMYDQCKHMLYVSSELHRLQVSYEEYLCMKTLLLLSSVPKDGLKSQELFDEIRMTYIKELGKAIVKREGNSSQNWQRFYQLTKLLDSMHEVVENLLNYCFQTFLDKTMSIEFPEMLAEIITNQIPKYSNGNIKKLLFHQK

Row | Compound | activation | Potency
1 | CN1C(=O)CC(=O)N(c2ccccc2)c2cc(Cl)ccc21 | inactive: -0.0771% | –
2 | CCC/C=C/C=C/C(=O)O[C@H]1/C(=C/C(=O)OC)C[C@H]2C[C@H]([C@@H](C)O)OC(=O)C[C@H](O)C[C@@H]3C[C@H](OC(C)=O)C(C)(C)[C@](O)(C[C@@H]4C/C(=C/C(=O)OC)C[C@H](/C=C/C(C)(C)[C@]1(O)O2)O4)O3 | inconclusive: 15.1% | –
3 | [H+].[H+].[Hg+2].[O-]B([O-])[O-].[c-]1ccccc1 | – | inconclusive [cytotoxic, full curve]

Target: Glucocorticoid receptor (Homo sapiens) (UniProt P04150)
Experiment: qHTS assay to identify small molecule antagonists of the glucocorticoid receptor (GR) signaling pathway (AID 720692; active means well fitted inhibition curve with a large enough effect in the signal ratio in the repeat runs, not every such curve was filed as active; inconclusive means weak or mixed curves, or effect the other way; inactive means no such curve, though single readings can be large or run the other way; the % refers to the signal ratio; further: potency means the concentration at half of the fitted maximal effect; on activity change, negative = inhibition: on the % scale 0 is the no-effect control and ±100 the full control effect)
Details: GR-bla HeLa, beta-lactamase FRET ratio, dexamethasone-stimulated, 18 h; activity change, negative = inhibition: at 58.5 µM (top of the series) unless noted
Method in brief: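 Tox21 10K library screened in concentration-response for blockade of dexamethasone (5 nM final)-induced GRE-bla reporter activity in HeLa cells; 18 h treatment, fluorescence read.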

Row | Compound | activity change, negative = inhibition | Potency
4 | Oc1ccc2c3c1O[C@H]1[C@@H](O)CC[C@@]4(O)[C@@H](C2)N(CC2CCC2)CC[C@]314 | inactive: 4.07% | –
5 | O=C1Nc2ccc(Cl)cc2C(c2ccccc2Cl)=NC1O (stereo not given) | inactive: -14.4% | –
6 | [H+].[H+].[Hg+2].[O-]B([O-])[O-].[c-]1ccccc1 | – | inconclusive [cytotoxic, full curve]

Test system: not listed separately
Experiment: qHTS assay for identifying genotoxic compounds that show differential cytotoxicity against isogenic chicken DT40 cell lines with known DNA damage response pathways - wild type cell line (AID 743012); further: nearly all actives have a fitted effect of over 60% in size; further: potency means the concentration at half of the fitted maximal effect; on activity change, negative = cytotoxicity: on the % scale 0 is the no-effect control and ±100 the full control effect
Details: DT40 wild type chicken cells viability, CellTiter-Glo, 40 h; activity change, negative = cytotoxicity: at 68.4 µM (top of the series) unless noted
Method in brief: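 Endpoint: CellTiter-Glo luminescence, 30 min RT. Cells: wild type DT40, 300/well. Exposure: compounds in DMSO, 40 h, 37 C/5% CO2, after ~0.5 h pre-incubation.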

Row | Compound | Potency | activity change, negative = cytotoxicity
7 | Cc1ccccc1-n1c(CF)nc2ccc(N)cc2c1=O | inconclusive [cytotoxic, partial curve, poor fit] | –
8 | CC[C@H]1[C@@H]2C[C@H]3[C@@H]4N(C)c5ccccc5[C@]45C[C@@H](C2[C@H]5O)N3[C@@H]1O (stereo not given in full) | inconclusive [cytotoxic, single point] | –
9 | CCN1C[C@]2(COC)[C@H](O)C[C@H](OC)[C@@]34[C@@H]5C[C@@]6(O)[C@H](OC(=O)c7ccccc7)[C@@H]5[C@@](OC(C)=O)([C@@H]([C@H](OC)[C@H]23)[C@@H]14)[C@@H](O)[C@@H]6OC | – | inactive: 12.1%
10 | O=C1Nc2ccc(Cl)cc2C(c2ccccc2Cl)=NC1O (stereo not given) | inconclusive [cytotoxic, partial curve, poor fit] | –

Test system: not listed separately
Experiment: qHTS assay for identifying genotoxic compounds that show differential cytotoxicity against isogenic chicken DT40 cell lines with known DNA damage response pathways - Rev3 mutant cell line (AID 743014); further: nearly all actives have a fitted effect of over 55% in size; further: potency means the concentration at half of the fitted maximal effect; on activity, negative = cytotoxicity: on the % scale 0 is the no-effect control and ±100 the full control effect
Details: chicken DT40 Rev3-/- viability, CellTiter-Glo, 40 h; activity, negative = cytotoxicity: at 68.4 µM (top of the series)

Row | Compound | activity, negative = cytotoxicity | Potency
11 | CC[C@H]1[C@@H]2C[C@H]3[C@@H]4N(C)c5ccccc5[C@]45C[C@@H](C2[C@H]5O)N3[C@@H]1O (stereo not given in full) | inactive: -0.681% [at 31.4 µM] | –
12 | CCOc1ccc2c3c1O[C@H]1[C@@H](O)C=C[C@H]4[C@@H](C2)N(C)CC[C@@]341 | – | inconclusive [rising, partial curve, poor fit]
13 | c1csc(C2(N3CCCCC3)CCCCC2)c1 | inactive: 2.57% | –
14 | CCN(CC)C(=O)N[C@H]1C[C@@H]2c3cccc4[nH]cc(c34)C[C@H]2N(C)C1 | – | inconclusive [cytotoxic, single point]
15 | CCC1(CC)C(=O)NC(=O)N(C)C1=O | inactive: -2.68% | –
16 | COC(=O)[C@@H]1[C@H]2CC[C@@H](C[C@H]1OC(=O)c1ccccc1)N2C | inactive: -0.0838% | –

Test system: not listed separately
Experiment: qHTS assay for identifying genotoxic compounds that show differential cytotoxicity against isogenic chicken DT40 cell lines with known DNA damage response pathways - Rad54/Ku70 mutant cell line (AID 743015); further: potency means the concentration at half of the fitted maximal effect; nearly all actives have a fitted effect of over 60% in size
Details: DT40 Rad54/Ku70 mutant viability, CellTiter-Glo, 40 h; activity change, negative = cytotoxicity: at 66.8 µM (top of the series)

Row | Compound | Potency
17 | Cc1ccccc1-n1c(CF)nc2ccc(N)cc2c1=O | inconclusive [cytotoxic, single point]
18 | CCN(CC)C(=O)N[C@H]1C[C@@H]2c3cccc4[nH]cc(c34)C[C@H]2N(C)C1 | inconclusive [cytotoxic, single point]
19 | CCC1(c2ccccc2)C(=O)NC(=O)N(C(=O)c2ccccc2)C1=O (stereo not given) | inconclusive [cytotoxic, single point]

Test system: not listed separately
Experiment: qHTS assay to identify small molecule antagonists of the androgen receptor (AR) signaling pathway - cell viability counter screen (AID 743033; further: on the % scale 0 is the no-effect control and ±100 the full control effect; nearly all actives have a fitted effect of over 45% in size)
Details: AR-bla HEK293 viability, CellTiter-Glo luminescence, 16 h; series mostly up to 58.5 µM; activity change, negative = cytotoxicity: at the top concentration

Row | Compound | activity change, negative = cytotoxicity
20 | CCOc1ccc2c3c1O[C@H]1[C@@H](O)C=C[C@H]4[C@@H](C2)N(C)CC[C@@]341 | inactive: 12.2%
21 | COC(=O)[C@@H]1[C@H]2CC[C@@H](C[C@H]1OC(=O)c1ccccc1)N2C | inactive: 12.7%
22 | CCC/C=C/C=C/C(=O)O[C@H]1/C(=C/C(=O)OC)C[C@H]2C[C@H]([C@@H](C)O)OC(=O)C[C@H](O)C[C@@H]3C[C@H](OC(C)=O)C(C)(C)[C@](O)(C[C@@H]4C/C(=C/C(=O)OC)C[C@H](/C=C/C(C)(C)[C@]1(O)O2)O4)O3 | inactive: 1.46%

Test system: not listed separately
Experiment: qHTS assay to identify small molecule antagonists of the thyroid receptor (TR) signaling pathway - cell viability counter screen (AID 743064); further: nearly all actives have a fitted effect of over 50% in size; further: potency means the concentration at half of the fitted maximal effect
Details: GH3.TRE-Luc viability, CellTiter-Fluor, 24 h; activity change, negative = cytotoxic: at 70.3 µM (top of the series) unless noted
Method in brief: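 Rat GH3 pituitary tumor cells stably expressing two TR response elements driving luciferase were plated, rested 4 h, then dosed with library compounds and T3 (1 nM final). After 23.5 h at 37 °C, CellTiter-Fluor was added for 30 min and fluorescence recorded.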

Row | Compound | activity change, negative = cytotoxic | Potency
23 | CN1C(=O)CC(=O)N(c2ccccc2)c2cc(Cl)ccc21 | inactive: 4.86% | –
24 | CCOc1ccc2c3c1O[C@H]1[C@@H](O)C=C[C@H]4[C@@H](C2)N(C)CC[C@@]341 | – | inconclusive [cytotoxic, single point]
25 | CCC/C=C/C=C/C(=O)O[C@H]1/C(=C/C(=O)OC)C[C@H]2C[C@H]([C@@H](C)O)OC(=O)C[C@H](O)C[C@@H]3C[C@H](OC(C)=O)C(C)(C)[C@](O)(C[C@@H]4C/C(=C/C(=O)OC)C[C@H](/C=C/C(C)(C)[C@]1(O)O2)O4)O3 | – | active: 10.6 µM
26 | [H+].[H+].[Hg+2].[O-]B([O-])[O-].[c-]1ccccc1 | – | active: 1.06 µM

Test system: not listed separately
Experiment: qHTS assay to identify small molecule antagonists of the thyroid receptor (TR) signaling pathway (AID 743065); further: potency means the concentration at half of the fitted maximal effect; nearly all actives have a fitted effect of over 55% in size
Details: GH3.TRE-Luc, T3-stimulated luciferase inhibition, 23.5 h; series mostly up to 70.3 µM; activity, negative = inhibition: at the top concentration
Method in brief: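 GH3.TRE-Luc rat pituitary cells (two TREs driving luciferase) were dosed with compound, then stimulated with 1 nM T3 (final) for 23.5 h at 37 C. ONE-Glo luminescence was the read-out, with CellTiter-Fluor fluorescence as the cytotoxicity counter-screen.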

Row | Compound | Potency
27 | CCOc1ccc2c3c1O[C@H]1[C@@H](O)C=C[C@H]4[C@@H](C2)N(C)CC[C@@]341 | inconclusive [inhibitor, single point]
28 | CCN(CC)C(=O)N[C@H]1C[C@@H]2c3cccc4[nH]cc(c34)C[C@H]2N(C)C1 | inconclusive [inhibitor, partial curve, poor fit]
29 | CCC/C=C/C=C/C(=O)O[C@H]1/C(=C/C(=O)OC)C[C@H]2C[C@H]([C@@H](C)O)OC(=O)C[C@H](O)C[C@@H]3C[C@H](OC(C)=O)C(C)(C)[C@](O)(C[C@@H]4C/C(=C/C(=O)OC)C[C@H](/C=C/C(C)(C)[C@]1(O)O2)O4)O3 | active: 9.44 µM
30 | CCC1(c2ccccc2)C(=O)NC(=O)N(C(=O)c2ccccc2)C1=O (stereo not given) | inconclusive [inhibitor, partial curve, poor fit]
